Source: PubChem BioAssay AID686979 (National Center for Advancing Translational Sciences (NCATS), 2013)
Several values for one entry are separate records, joined by “and”; a condition that tells them apart may be missing. Equal entries are not always repeated. Among all 420,000 compounds or so, about 50,000 (12%) were called active. This list was built around the results that the source calls inconclusive (neither active nor inactive); the mix of calls is not that of the screen. The call rests on the fitted dose curve; in most records, active means well fitted inhibition curve with a large enough effect; inconclusive means small, poorly fitted or top-dose-only effect; inactive means flat fitted curve, though single readings scatter. Where the call is inconclusive, the potency comes from a doubtful curve fit. Where a structure was tested more than once in an assay, its records may differ in their call.

assay: qHTS for Inhibitors of human tyrosyl-DNA phosphodiesterase 1 (TDP1): qHTS in cells in presence of CPT; details: chicken DT40 Tdp1-/-;hTDP1 cells + 20 nM CPT, ATP luminescence, 48 h; activity change, negative = growth inhibition: at 46.2 µM (top of the series) unless noted; further: nearly all actives have a fitted effect of over 55% in size
Procedure, shortened: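 Chicken DT40 Tdp1-/- cells complemented with human TDP1, 400 cells/well, exposed to compounds plus 20 nM camptothecin for at least 48 h at 37 C; viability read as ATP content by CellTiter-Glo luminescence.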
On the % scale 0 is the no-effect control and ±100 the full control effect; potency means the concentration at half of the fitted maximal effect; tags describe the fitted curve by direction and shape.

Row | Compound | Potency | activity change, negative = growth inhibition
1 | O=C1CN=C(c2ccc[nH]2)c2cc(Cl)ccc2N1 | active: 0.164 µM | 
2 | O=C(CNC(=O)c1ccccc1)NCC(=O)OCC(=O)c1ccc([N+](=O)[O-])cc1 | inconclusive: 29.1 µM [inhibitor, single point] | 
3 | Fc1ccc(C(OCCN2CCN(C/C=C\c3ccccc3)CC2)c2ccc(F)cc2)cc1 | active: 5.31 µM | 
4 | COC(=O)C1=C(c2cccc(C#N)c2)C[C@@H]2CC[C@H]1N2C(=O)N1CCc2cc(OC)c(OC)cc2C1 | inconclusive: 25.9 µM [inhibitor, single point] | 
5 | CC1CCN(C(=O)N2c3ccccc3Sc3ccccc32)CC1 | inconclusive: 29.1 µM [inhibitor, single point] | 
6 | Cn1ncc(Cl)c1C(=O)N1CCC2(CC1)OCCO2 |  | inactive: -3.22%
7 | CCOc1ccc(N2CC(c3nc4ccccc4n3CCC3CCCCC3)CC2=O)cc1 (centres undefined) | active: 7.31 µM | 
8 | c1ccc(Cn2ccnc2)cc1 |  | inactive: 6.93%
9 | CC1(C)C(=O)C=C[C@@]2(C)C1CC(O)[C@]1(C)C2CC[C@@]2(C)C(c3ccoc3)OC(=O)C3O[C@]312 (some centres undefined) | active: 13 µM | 
10 | O=c1[nH]c(O)c(N=Nc2ccc([N+](=O)[O-])cc2)c(=O)[nH]1 | inconclusive: 20.6 µM [inhibitor, single point] | 
11 | O=c1[nH]c(=S)[nH]c(O)c1N=Nc1cccc(S(=O)(=O)N2CCOCC2)c1 |  | inactive: -18.5%
12 | C[C@H]1[C@@H](OS(=O)(=O)O)C[C@@H]2C[C@H]([C@@H](O)c3cc(=O)[nH]c(=O)[nH]3)NC3=NC[C@H]1N32 | active: 2.31 µM | 
13 | O=C(Cc1ccccc1)N1CCN(CCCc2ccccc2)CC1 | inconclusive: 29.1 µM [inhibitor, single point] | 
14 | CC(C)(C)n1nnnc1C(c1ccccc1)N1CCC2(CC1)C(=O)NCN2c1ccccc1 (centres undefined) | inconclusive: 29.1 µM [inhibitor, single point] | 
15 | Cc1oc(-c2ccccc2F)nc1CS(=O)(=O)CC(=O)N1CCN(c2cccc(C(F)(F)F)c2)CC1 | inconclusive: 23.1 µM [inhibitor, single point] | 
16 | CCn1c(NN=O)nc2ccccc21 | active: 7.31 µM | 
17 | CC(CC(C#N)(c1ccccc1)c1ccccc1)N(C)C (centres undefined) | inconclusive: 61.1 µM [inhibitor, single point] | 
18 | Cc1ccc(-c2nn(Cc3ccccc3)cc2C=O)cc1C | inconclusive: 29.1 µM [inhibitor, single point] | 
19 | C=CCn1c(O)c(C=NC2CCN(Cc3ccccc3)CC2)c(=O)[nH]c1=O |  | inactive: -7.4%
20 | CC(=O)OC1C(=O)OCC23CCC4(C)OC4C2OC2CC(OC(=O)C=CC=CC(=O)OCCC1C)C3(C)C21CO1 (centres undefined) | active: 0.146 µM | 
21 | CC1=CC2OC3CC4OC(=O)C=CC=CC(C(C)O)OCC(O)C5(C)OC5C(=O)OCC2(CC1O)C4(C)C31CO1 (centres undefined) | active: 0.092 µM | 
22 | CCOP(=O)(OCC)C(NC(C)=O)C(Cl)(Cl)Cl (centres undefined) |  | inactive: -12.8%
23 | Cc1ccc(/C=C2\C(=O)NC(=O)N(Cc3ccccc3Cl)C2=O)o1 | inconclusive: 16.4 µM [inhibitor, single point] | 

Row | Compound | Potency | activity change, negative = growth inhibition
24 | O=C1NC(=O)C(=Cc2ccc(-c3ccc(S(=O)(=O)N4CCOCC4)cc3)o2)C(=O)N1 | inconclusive: 29.1 µM [inhibitor, single point] | 
25 | CN(C)CCSC1c2ccccc2CSc2ccccc21 (centres undefined) | inconclusive: 29.1 µM [inhibitor, single point] | 
26 | Cc1ccc(-n2c(/C=C/c3cc(Br)cs3)nc3ccccc3c2=O)cc1C | inconclusive: 29.1 µM [inhibitor, single point] | 
27 | CCOc1ccc(-c2cc(C)n3nc(C(=O)Nc4ccc(C)c(C)c4)cc3n2)cc1 | inconclusive: 16.4 µM [inhibitor, single point] | 
28 | CC(=O)OC(C)(C)/C=C/C(=O)[C@](C)(O)C1[C@H](O)C[C@@]2(C)C3CC=C4C(C[C@H](O)C(=O)C4(C)C)[C@]3(C)C(=O)C[C@]12C (some centres undefined) | active: 0.0082 µM | 
29 | CCCCC(=O)OCC(=O)[C@H]1[C@H](C)C[C@H]2[C@@H]3C[C@H](F)C4=CC(=O)C=C[C@]4(C)[C@@]3(F)[C@@H](O)C[C@@]21C | inconclusive: 11.9 µM [inhibitor, partial curve] | 
30 | COc1ccc(C2SCC(=O)Nc3c2c(=O)[nH]n3C2CCCCCC2)cc1OC (centres undefined) |  | inactive: -26.5%
31 | COc1ccc(CN2CCN(C(=O)COc3ccc4ccccc4c3)CC2)c(OC)c1 | inconclusive: 20.6 µM [inhibitor, single point] | 
32 | COc1ccc(C)cc1NC(=O)c1cccn(Cc2ccccc2Cl)c1=O |  | inactive: -29%
33 | c1ccc(/N=C2\N=C(Nc3ccccn3)c3ccccc32)nc1 | active: 0.206 µM | 
34 | O=C(CCCOc1ccc(Cl)cc1Cl)Nc1cc(S(=O)(=O)N2CCOCC2)ccc1N1CCOCC1 | inconclusive: 23.1 µM [inhibitor, single point] | 
35 | CCCCNC(C)(C)[P+](=O)O |  | inactive: -3.7%
36 | Cc1cccc(N2CCN(C(=O)CCS(=O)(=O)c3ccc4c(c3)oc(=O)n4C)CC2)c1C | inconclusive: 23.1 µM [inhibitor, partial curve] | 
37 | Cc1ccc(/C=C/C(=O)C2C(=O)c3ccccc3C2=O)cc1 | active: 16.4 µM | 
38 | CC(C)[C@H]1C(=O)O[C@@H]2CCN3CC=C(COC(=O)[C@](C)(O)[C@]1(C)O)[C@H]23 | inconclusive: 18.4 µM [inhibitor, partial curve] | 
39 | COc1ccc(C#Cc2ccc3c(c2)O[C@H](CN(C)C(C)=O)[C@H](C)CN([C@@H](C)CO)S3(=O)=O)cc1 | active: 23.1 µM | 
40 | NC(=Nc1ccccc1)Nc1ccccc1 | inactive and inconclusive: 7.7 µM [inhibitor, full curve, poor fit] | 
41 | CNc1ccc2nc3ccccc3[n+](C)c2c1 | active: 1.16 µM | 
42 | O=C1NC(=O)C(=CN2CCc3ccccc32)C(=O)N1 | inconclusive: 29.1 µM [inhibitor, single point] | 
43 | CCC(=NC(C)c1ccccc1)c1c(O)n(C)c(=O)n(C)c1=O (centres undefined) | active: 20.6 µM | 
44 | N#CC(C#N)=Cc1ccc(O)c(O)c1 | inactive and active: 21.1 µM | 
45 | Cc1ccc(OC(=O)N(C)C[C@H]2OCc3cnnn3CCCC(=O)N([C@H](C)CO)C[C@@H]2C)cc1 |  | inconclusive: -30.2% [inhibitor]
46 | COC(=O)C1=C(c2cccc(C#N)c2)C[C@@H]2CC[C@H]1N2C(=O)NCc1ccc(F)cc1 |  | inactive: -16.7%

Row | Compound | Potency | activity change, negative = growth inhibition
47 | CCCCCCC(=O)N/N=C/c1c(O)n(CCc2ccccc2)c(=O)[nH]c1=O | inconclusive: 29.1 µM [inhibitor, single point] | 
48 | c1ccc(CN2COC3CCCCCC32)cc1 (centres undefined) |  | inconclusive: -31.7% [inhibitor]
49 | O=C1NC(=O)N(Cc2ccccc2)C(=O)/C1=C/c1cnc(-c2ccccc2)nc1 | inconclusive: 29.1 µM [inhibitor, single point] | 
50 | Cc1ccccc1-n1c(CNc2ccccc2)nc2ccccc2c1=O | inconclusive: 18.4 µM [inhibitor, single point] | 
51 | CC(=O)C1C(N2CC2)CC2C3CCC4=CC(=O)CCC4(C)C3CCC21C (centres undefined) | active: 7.31 µM | 
52 | Cc1oc(-c2ccccc2)nc1CN1C(=O)C(C)N=C(c2ccccc2F)c2cc(Cl)ccc21 (centres undefined) | inconclusive: 20.6 µM [inhibitor, single point] | 
53 | CC(=O)c1c(O)c(C)c(O)c(Cc2c(O)c3c(c(C(=O)/C=C\c4ccccc4)c2O)OC(C)(C)C=C3)c1O | active: 13.3 µM | 
54 | C=CCN1C(=O)/C(=C/c2ccc3c(c2)CCCN3CCC)C(=O)NC1=S | inconclusive: 20.6 µM [inhibitor, single point] | 
55 | COCC(=O)N1CCC2(CCCN(Cc3ccncc3)C2)CC1 |  | inactive: 3.55%
56 | Oc1ccc(/C=N/NP(=S)(c2ccccc2)c2ccccc2)cc1 |  | inactive: -14.9%
57 | C[C@H]1[C@@H](c2ccccc2)O[C@@H](c2ccccc2Br)N1C | inconclusive: 20.6 µM [inhibitor, single point] | 
58 | COc1ccc(/C=C2/C(=O)N(c3ccccc3)N=C2C)cc1 | inconclusive: 29.1 µM [inhibitor, single point] | 
59 | N#CC(C#N)=NNc1ccc(S(N)(=O)=O)cc1 | inconclusive: 20.6 µM [inhibitor, single point] | 
60 | CCN(CC)C(=O)Oc1ccc(OC(=O)N(CC)CC)cc1 | inconclusive: 29.1 µM [inhibitor, single point] | 
61 | COc1cc(CN2CCc3nc(N4CCN(c5ccccc5F)CC4)ncc3C2)ccc1OC(C)C | inconclusive: 25.9 µM [inhibitor, single point] | 
62 | COc1ccccc1C(=O)Nc1ccc2c(c1)CC1(C(=O)N(C)C(=O)N(C)C1=O)C1CCCN21 (centres undefined) | inconclusive: 32.6 µM [inhibitor, single point] | 
63 | Cc1ccc(C(=O)N2CC2C)cc1 (centres undefined) |  | inactive: -12.7%
64 | c1cc2c(cc1-c1ccc3c(c1)OCO3)CNCc1cnnn1-2 | inconclusive: 25.9 µM [inhibitor, single point] | 
65 | COC(=O)C1=C(c2ccc3ccccc3c2)C[C@@H]2CC[C@H]1N2C(=O)NC1CCCCC1 | inconclusive: 29.1 µM [inhibitor, single point] | 
66 | COc1cccc(CN2CCC(n3nccc3NC(=O)CCOc3ccccc3)CC2)c1O | inconclusive: 23.1 µM [inhibitor, single point] | 
67 | O=C(CNC(=O)c1ccccc1)Nc1ccc(Br)cc1C(=O)c1ccccc1 |  | inactive: 1.86%
68 | COP(=O)(OC)OC=C(Cl)Cl | inconclusive: 29.9 µM [inhibitor, single point] | 
69 | CCNC(=O)NC(=O)C(C)OC(=O)c1c(C)nn(Cc2ccccc2Cl)c1Cl (centres undefined) | inconclusive: 23.1 µM [inhibitor, single point] | 
